# From the supplement of paper PMC3334620
# In all, about 33,000 sequences were measured (“E-score (-0.5 to 0.5)”: median about -0.032, highest 2% from about 0.36 on). This is one part of the list.
# Target: T1, Sko1 (UniProt Q02100)
# T1 sequence: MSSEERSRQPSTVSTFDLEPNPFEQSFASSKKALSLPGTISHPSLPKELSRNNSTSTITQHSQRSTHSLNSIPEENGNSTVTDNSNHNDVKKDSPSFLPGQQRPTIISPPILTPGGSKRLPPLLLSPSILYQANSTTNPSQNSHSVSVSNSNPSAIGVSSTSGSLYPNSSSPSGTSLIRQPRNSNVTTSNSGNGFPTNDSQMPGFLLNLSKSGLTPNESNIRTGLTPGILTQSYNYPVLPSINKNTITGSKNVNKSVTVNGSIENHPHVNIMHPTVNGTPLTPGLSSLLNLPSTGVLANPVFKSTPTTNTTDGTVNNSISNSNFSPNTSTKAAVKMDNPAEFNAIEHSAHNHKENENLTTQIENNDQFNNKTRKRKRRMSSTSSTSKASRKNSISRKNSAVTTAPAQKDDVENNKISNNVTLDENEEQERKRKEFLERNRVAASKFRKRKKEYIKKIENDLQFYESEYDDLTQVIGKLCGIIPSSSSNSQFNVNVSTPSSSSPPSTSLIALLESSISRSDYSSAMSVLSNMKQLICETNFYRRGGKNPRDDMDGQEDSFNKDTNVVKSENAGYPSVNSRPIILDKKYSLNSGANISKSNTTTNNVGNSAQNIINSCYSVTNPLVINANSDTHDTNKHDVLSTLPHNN
# Experiment: PBM E-score (8-mer binding enrichment) (E-score (-0.5 to 0.5)); higher = stronger / more preferred TF binding; most listed sequences are background and not binding sites
# Details: protein concentration: 200 nM; construct: GST-full length
# Procedure, shortened: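 Yeast transcription factors, full-length or as DNA-binding domains, were expressed with a GST tag using PURExpress in vitro transcription/translation. At about 100-200 nM they were applied to universal all-10-mer Agilent arrays, double-stranded by primer extension on fresh or once-stripped slides. Fluorescent anti-GST detected bound protein, and masliner normalised the scans. E-scores for ungapped eight-base words, pooled with reverse complements, came from the Universal PBM Analysis Suite.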
row,Sequence,PBM E-score
1,CGGTCTGC,-0.149
2,AATTCCAT,-0.0002
3,CGACGAAA,0.266
4,GATAACCC,-0.236
5,ATTGTCCC,-0.216
6,GACTTGGA,-0.226
7,AGGGTTAA,-0.0609
8,CTGAGGAA,-0.107
9,GGTCTTGA,0.0182
10,CTGCTATC,-0.0506
11,AATTCGGG,-0.124
12,AAAGCCAG,-0.108
13,AAAACGCA,0.186
14,ACAGAATG,0.0222
15,ACATTTGC,0.0838
16,GGCCGCTA,-0.209
17,ACAACCCG,-0.112
18,AATGGACC,0.0339
19,ATAGTATC,0.132
20,AGCAAGTA,0.0608
21,ACCTGATG,-0.126
22,GAGAATAC,0.114
23,CATGACAA,-0.00914
24,CAGCCAGG,-0.215
25,ACGCCATA,0.393

row,Sequence,PBM E-score
1,CCTCTAGC,-0.13
2,CCGCATGA,0.0723
3,CCCCGTCC,-0.406
4,AAGCCGCG,-0.108
5,AACACGTG,0.395
6,GGTCTTAA,-0.0965
7,ACTGCCAG,-0.161
8,ATACCCAT,0.0607
9,CTTTGTAC,0.0159
10,TCTTGAAA,0.118
11,CTAGGCCA,-0.184
12,ACACAAGC,0.00974
13,TGACTTAA,0.197
14,AAATTCAA,0.181
15,CGAATCCC,-0.126
16,ACACTACT,-0.0134
17,CATCCTAA,0.173
18,AATTTGGG,0.0602
19,AGTGCCTA,-0.0535
20,ACTGCGAG,-0.177
21,AGAGCGCA,-0.242
22,AACTCGAC,0.0597
23,ATCCCAAT,0.00798
24,AAGAGGGT,-0.134
25,AGTCAATC,0.017

row,Sequence,PBM E-score
1,CTAGCATC,-0.0273
2,ACAACTGT,0.012
3,CGGGACGC,-0.234
4,AAGAGCTC,-0.114
5,ACCCGATC,0.028
6,AAGTGCAG,-0.0763
7,CACCTAGG,-0.031
8,ATCTCCTA,-0.0714
9,CTGAGCCC,-0.222
10,CTCTCTAA,-0.229
11,ACTACACC,0.0296
12,AGGTCTCC,-0.27
13,CAATAGAA,-0.1
14,ACTACGGG,-0.221
15,ACGTGCAC,0.355
16,GCCTGAGC,-0.162
17,ATGGGGGG,-0.236
18,GTGGCAAA,-0.00522
19,GAGCATTA,0.0416
20,AGGAACGC,-0.0849
21,CTTTCGGA,-0.16
22,AACTTTAG,0.247
23,AGGCGGAC,-0.208
24,AGTTACGA,0.293
25,CGACATGC,0.131

row,Sequence,PBM E-score
1,AATACACG,0.307
2,AGCCCTCC,-0.412
3,CGAGGCGA,-0.222
4,GCTGAAGC,-0.119
5,AAGCTCAA,-0.0304
6,CTCTCTTC,-0.107
7,GATCTTAC,-0.00807
8,GATATTAA,0.0842
9,AGCGAGCG,0.0279
10,CTTCAAGA,0.0181
11,GACACGTC,0.382
12,AGGCTTCG,-0.242
13,GATCTTAA,0.0822
14,ACGCTCCG,-0.152
15,ACGAGATC,0.0765
16,GCACGCGC,0.164
17,AGTAATTG,0.173
18,GTTAAGGA,0.0042
19,ACTGGGCT,-0.359
20,CTTGCCTA,0.0453
21,AGACTGAC,0.0795
22,ATGTATAG,0.164
23,ATTGCCTA,-0.0814
24,CGCGTCCC,-0.274
25,CACCGGCA,-0.161

row,Sequence,PBM E-score
1,CTGCGTCA,0.435
2,AGTTCGTC,0.202
3,CTTTGTGA,-0.079
4,CCTTCTCA,-0.0853
5,ACCCGGCC,-0.333
6,AAAGAGTA,-0.00658
7,AGCTTTGA,0.0244
8,CGGAAGTC,-0.152
9,CCTGAAAG,-0.0268
10,GATTGGTA,-0.054
11,AGGCAACG,-0.0814
12,GACCCCTC,-0.32
13,GACCACAC,-0.108
14,GCGCGCGC,0.244
15,GGCCCTAC,-0.337
16,CAGGGTAC,-0.117
17,CAGCCGGC,-0.207
18,AACCCGAT,0.0916
19,GGGAGTGA,-0.177
20,AGAAGGCT,-0.221
21,CTAACCAA,-0.0277
22,CCTGACCC,-0.214
23,CAGCGCTA,-0.00166
24,TACGGTAA,0.33
25,CCTCGAAG,-0.0384

row,Sequence,PBM E-score
1,AGGTTATA,-0.0325
2,ATAAAGTC,0.0596
3,CCGTAGTA,-0.0427
4,GGCTTCAA,-0.153
5,GCTGAACA,-0.148
6,ATACTGAT,0.141
7,ACAAAATA,0.188
8,CCGAACAG,0.0297
9,CGTGTAGC,0.103
10,GATGAATC,-0.0135
11,ACTCTAAC,-0.00576
12,CTATACTC,-0.102
13,AGCCGCCC,-0.234
14,CTCGCGGC,-0.182
15,AGTCGCAC,-0.105
16,AATTCTTG,0.122
17,CGATTCCC,-0.124
18,AGTGAGTG,-0.116
19,ATCCCTTC,-0.121
20,ACTCTCCA,-0.104
21,AACGACGC,0.0851
22,CAACCCGC,-0.124
23,CGCCCAAA,-0.0448
24,CGCTGAAC,-0.0109
25,GCCAGTGA,-0.0654

row,Sequence,PBM E-score
1,ACATCACC,0.277
2,ACAATATG,0.0615
3,CCATAAAA,0.0122
4,CACTTACG,0.382
5,AACGCCTG,-0.014
6,CTTGAACC,0.0388
7,AATATATT,0.328
8,GACAGCCA,-0.131
9,TCACAGAA,-0.0132
10,GCGGGCTA,-0.267
11,AAACCCCG,-0.127
12,GATTACTA,0.204
13,CCGTACTA,0.00949
14,ACGAGCAT,0.0646
15,CCAGGGTA,-0.159
16,CACTAGCG,-0.124
17,CAAGCCTA,-0.0377
18,CTTTGGAC,0.0446
19,ATTCTCGG,-0.0783
20,GTCACCAC,0.128
21,ACCAACGA,-0.0617
22,AGCTTTCG,-0.129
